{"source": "PubChem BioAssay AID2101", "about": "(National Center for Advancing Translational Sciences (NCATS), 2009)", "note": "The campaign covered roughly 330,000 compounds. About 300 (0.091%) were called active. The shares of active, inactive and inconclusive entries below differ from those in the screen. Calls come from the whole dose curve; as a rule, active = well fitted inhibition curve with a large enough effect; inconclusive = small, poorly fitted or top-dose-only effect, or effect the other way, or another doubt; inactive = no such curve, though single readings can be large or run the other way. No potency is given beside an inconclusive call; the fits are too rough. Potency is the fitted concentration of half-maximal effect.", "data": [{"target": "Lysosomal acid glucosylceramidase (Homo sapiens) (UniProt P04062)", "assay": "qHTS Assay for Inhibitors and Activators of N370S glucocerebrosidase as a Potential Chaperone Treatment of Gaucher Disease;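 for activity change, negative = inhibition: 0% = full enzyme activity and -100% = no enzyme basal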", "details": "N370S GC spleen homogenate, 4MU-glucoside fluorescence; activity change, negative = inhibition: at 59.4 µM (top of the series) unless noted", "values": [{"smiles": "O=C(N/N=C/c1cc(Cl)cc([N+](=O)[O-])c1O)C(O)(c1ccccc1)c1ccccc1", "Potency": "inconclusive [activator, single point]"}, {"smiles": "CC1=C(C(=O)Nc2ccccc2C(=O)N2CCCCC2)SCCO1", "Potency": "inconclusive [activator, single point]"}, {"smiles": "O=C(NCC1CCCO1)C(c1cccs1)N(Cc1cccs1)C(=O)Cn1nnc(-c2cccs2)n1", "note": "(stereo not drawn)", "Potency": "inconclusive [activator, partial curve]"}, {"smiles": "CCCC(=O)Nc1cccc(-c2cn3cccnc3n2)c1", "Potency": "inconclusive [activator, single point]"}, {"smiles": "Cc1ccc(-c2c(C(=O)N/N=C/c3ccc4c(c3)OCO4)nnn2-c2nonc2N)cc1", "Potency": "inconclusive [activator, single point]"}, {"smiles": "S=c1[nH]nc(-c2cc(-c3ccco3)[nH]n2)n1-c1ccccc1Cl", "Potency": "inconclusive [inhibitor, single point]"}, {"smiles": "CC(=O)Nc1nc(C)c(-c2csc(Nc3ccc(O)cc3)n2)s1", "Potency": "inconclusive [inhibitor, partial curve]"}, {"smiles": "COCCNc1cc(C)nc2c3c(C)cc(C)nc3nn12", "Potency": "inconclusive [activator, partial curve]"}, {"smiles": "COCCCNC(=O)CNC(=O)c1cn(-c2ccccc2OC)c(=O)c2ccccc12", "activity change, negative = inhibition": "inactive: -4.77%"}, {"smiles": "CC(C)CNC(=S)NNC(=O)c1csc2c1CCC(C)C2", "note": "(stereo not drawn)", "Potency": "inconclusive [activator, full curve, poor fit]"}, {"smiles": "COC(=O)CCN1CCC(c2cc(-c3cccc(C(F)(F)F)c3)n[nH]2)CC1", "Potency": "inconclusive [inhibitor, full curve]"}, {"smiles": "COc1ccccc1NC(=O)NNC(=O)c1ccc2ccccc2c1O", "Potency": "inconclusive [activator, single point]"}, {"smiles": "O=C1c2ccccc2-c2cccc(NS(=O)(=O)c3ccc(C(F)(F)F)cc3)c21", "activity change, negative = inhibition": "inactive: 6.08%"}, {"smiles": "O=C1C2=CC[C@H]3C(=O)N(C[C@@H]4CCCO4)C(=O)[C@@H]3[C@@H]2[C@H](O)[C@@H]2O[C@H]12", "activity change, negative = inhibition": "inactive: 8.4% [at 12.8 µM]"}, {"smiles": "COc1cccc(CN(C)c2nc(-c3cccs3)nc3ccccc23)c1", "Potency": "active: 1.58 µM"}, {"smiles": "Cc1cc(C)cc(N(C(=O)c2nsc(Cl)c2Cl)C(C(=O)NC2CCCC2)c2ccc(O)cc2)c1", "note": "(stereo not drawn)", "Potency": "inconclusive [inhibitor, partial curve]"}, {"smiles": "O=C(N/N=C/c1cccc2cccnc12)[C@H]1C[C@@H]1c1ccccc1", "Potency": "inconclusive [activator, single point]"}, {"smiles": "Cc1cccc(N2C(=O)c3ccc(C(=O)Nc4ccccn4)cc3C2=O)c1", "activity change, negative = inhibition": "inactive: -5.2%"}, {"smiles": "O=C(COC(=O)c1ccccc1C(=O)OCC(=O)NCCc1c[nH]c2ccccc12)NCCc1c[nH]c2ccccc12", "Potency": "inconclusive [inhibitor, single point]"}, {"smiles": "CC1(C)SC(=S)N(/N=C/c2ccccc2O)C1N(O)C(=O)Nc1ccccc1", "note": "(stereo not drawn)", "activity change, negative = inhibition": "inactive: -9.15%"}, {"smiles": "Cc1ccc(C(=O)O/N=C(\\N)c2cccnc2)cc1[N+](=O)[O-]", "activity change, negative = inhibition": "inactive: 2.03%"}, {"smiles": "O=S1(=O)CC(NCc2ccccc2)C(Nc2ccc(Cl)cc2)C1", "note": "(stereo not drawn)", "Potency": "inconclusive [inhibitor, full curve, poor fit]"}, {"smiles": "CCOC(=O)c1c(N)n(C2CC(C)(C)NC(C)(C)C2)c2nc3ccccc3nc12", "Potency": "inconclusive [activator, partial curve]"}, {"smiles": "COc1ccc(C(=O)NC(=S)Nc2ccc(S(=O)(=O)Nc3cc(OC)ncn3)cc2)cc1", "activity change, negative = inhibition": "inactive: -0.43%"}, {"smiles": "CCCCC(=O)Nc1c(O)c2ccccc2[nH]c1=O", "activity change, negative = inhibition": "inactive: 3.11%"}, {"smiles": "Cc1cnc(NC(=O)c2sc(Nc3ccccc3)nc2N)o1", "activity change, negative = inhibition": "inactive: -6.89%"}, {"smiles": "CC1CC1c1ccc(/C=C(\\C#N)C(=O)Nc2ccccc2Cl)o1", "note": "(stereo not drawn)", "activity change, negative = inhibition": "inactive: 6.32%"}, {"smiles": "CCc1cc(Cl)c(OC)c(C(=O)NC[C@@H]2CCCN2CC)c1O", "Potency": "inconclusive [inhibitor, single point]"}, {"smiles": "CCC(=O)Nc1cccc(NC(=O)c2cccnc2)c1", "activity change, negative = inhibition": "inconclusive: 30.1% [activator]"}, {"smiles": "CCSC1(SCC)N=C(N)C2(C#N)C(c3ccccc3)NC3=C(CCC3)C12C#N", "note": "(stereo not drawn)", "activity change, negative = inhibition": "inactive: 5.26%"}, {"smiles": "COc1ccc(C(=O)COc2ccccc2N2C(=O)C3C4C=CC(C4)C3C2=O)cc1", "note": "(stereo not drawn)", "activity change, negative = inhibition": "inactive: -13.1%"}, {"smiles": "COc1ccc(/C=N/N2CCOCC2)cc1OCc1ccccc1", "activity change, negative = inhibition": "inactive: 4.31%"}, {"smiles": "COc1ccccc1-n1cnc2cc(NCc3ccccn3)ccc21", "Potency": "inconclusive [activator, single point]"}, {"smiles": "Cc1c(CCC(=O)NCCCn2ccnc2)c(=O)oc2c(C)c3occ(C(C)(C)C)c3cc12", "Potency": "inconclusive [inhibitor, partial curve]"}, {"smiles": "CCOC(CNC(=O)c1ccc2c(c1)ncn2-c1cccc(F)c1)OCC", "Potency": "inconclusive [inhibitor, full curve, poor fit]"}, {"smiles": "O=C(Nc1ccc(Oc2ccccc2)nc1)C1CCN(Cc2ccccc2)CC1", "Potency": "inconclusive [inhibitor, full curve, poor fit]"}, {"smiles": "CCN(CC)CCCN(C(=O)c1ccc(OC)cc1)c1nc(-c2ccc(OC)cc2)cs1", "Potency": "inconclusive [inhibitor, partial curve]"}, {"smiles": "COc1cccc(OC)c1-c1nn2c(-c3ccccc3Cl)nnc2s1", "Potency": "inconclusive [activator, partial curve]"}, {"smiles": "COc1ccc(N(C(=O)c2cc3ccccc3oc2=O)C2C=CS(=O)(=O)C2)cc1", "note": "(stereo not drawn)", "activity change, negative = inhibition": "inactive: -4.03%"}, {"smiles": "Cc1cccc(/C(N)=N/OC(=O)CCc2ccccc2)c1", "activity change, negative = inhibition": "inactive: 4.34%"}, {"smiles": "Cc1ccc2sc(N(CCCN(C)C)C(=O)c3ccc(S(=O)(=O)N(C)Cc4ccccc4)cc3)nc2c1C", "Potency": "inconclusive [inhibitor, partial curve]"}, {"smiles": "NNC(=O)c1nn(-c2ccc(Cl)cc2)cc1O", "activity change, negative = inhibition": "inactive: -22%"}, {"smiles": "C#CCOCCOCCOCCNc1nc(N2CCN(C(=O)C(Cc3cc4ccccc4[nH]3)n3cc(C(N)C(C)CC)nn3)CC2)nc(N2CCN(C(=O)C(Cc3cc4ccccc4[nH]3)n3cc(C(N)C(C)CC)nn3)CC2)n1", "note": "(stereo not drawn)", "Potency": "inconclusive [inhibitor, partial curve]"}]}]}
